Results are given in words; binding and its absence hold for the method and conditions named. Some results given as binding are weak or reduced against the parent protein; the word gives no strength.
T1: BON1-A (C-terminal A domain of BON1, from Val-319 to Pro-578), bait in pGBKT7 (Arabidopsis thaliana) (UniProt Q941L3)
T1 sequence: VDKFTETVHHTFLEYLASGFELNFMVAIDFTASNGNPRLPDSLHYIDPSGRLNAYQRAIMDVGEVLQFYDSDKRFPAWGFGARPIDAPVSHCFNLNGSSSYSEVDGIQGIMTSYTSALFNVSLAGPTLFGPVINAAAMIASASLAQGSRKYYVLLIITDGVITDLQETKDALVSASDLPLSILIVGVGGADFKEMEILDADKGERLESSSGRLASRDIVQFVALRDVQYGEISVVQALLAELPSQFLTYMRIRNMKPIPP

The chains behind the UniProt entries cited, without tags or fusion partners.
UniProt Q944A7: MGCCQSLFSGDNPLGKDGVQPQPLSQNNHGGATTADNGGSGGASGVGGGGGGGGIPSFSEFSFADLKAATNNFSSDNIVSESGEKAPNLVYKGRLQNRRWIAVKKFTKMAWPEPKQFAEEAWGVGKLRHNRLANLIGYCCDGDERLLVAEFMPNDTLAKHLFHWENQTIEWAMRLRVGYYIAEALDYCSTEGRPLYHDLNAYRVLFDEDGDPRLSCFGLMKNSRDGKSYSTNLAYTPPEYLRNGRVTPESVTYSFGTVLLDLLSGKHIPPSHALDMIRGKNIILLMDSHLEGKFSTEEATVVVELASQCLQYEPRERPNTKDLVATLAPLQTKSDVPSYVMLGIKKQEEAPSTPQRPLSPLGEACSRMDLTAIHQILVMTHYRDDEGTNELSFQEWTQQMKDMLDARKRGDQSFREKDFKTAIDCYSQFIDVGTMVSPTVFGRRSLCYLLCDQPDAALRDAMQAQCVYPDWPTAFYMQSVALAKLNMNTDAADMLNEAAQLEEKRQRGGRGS
UniProt O22476: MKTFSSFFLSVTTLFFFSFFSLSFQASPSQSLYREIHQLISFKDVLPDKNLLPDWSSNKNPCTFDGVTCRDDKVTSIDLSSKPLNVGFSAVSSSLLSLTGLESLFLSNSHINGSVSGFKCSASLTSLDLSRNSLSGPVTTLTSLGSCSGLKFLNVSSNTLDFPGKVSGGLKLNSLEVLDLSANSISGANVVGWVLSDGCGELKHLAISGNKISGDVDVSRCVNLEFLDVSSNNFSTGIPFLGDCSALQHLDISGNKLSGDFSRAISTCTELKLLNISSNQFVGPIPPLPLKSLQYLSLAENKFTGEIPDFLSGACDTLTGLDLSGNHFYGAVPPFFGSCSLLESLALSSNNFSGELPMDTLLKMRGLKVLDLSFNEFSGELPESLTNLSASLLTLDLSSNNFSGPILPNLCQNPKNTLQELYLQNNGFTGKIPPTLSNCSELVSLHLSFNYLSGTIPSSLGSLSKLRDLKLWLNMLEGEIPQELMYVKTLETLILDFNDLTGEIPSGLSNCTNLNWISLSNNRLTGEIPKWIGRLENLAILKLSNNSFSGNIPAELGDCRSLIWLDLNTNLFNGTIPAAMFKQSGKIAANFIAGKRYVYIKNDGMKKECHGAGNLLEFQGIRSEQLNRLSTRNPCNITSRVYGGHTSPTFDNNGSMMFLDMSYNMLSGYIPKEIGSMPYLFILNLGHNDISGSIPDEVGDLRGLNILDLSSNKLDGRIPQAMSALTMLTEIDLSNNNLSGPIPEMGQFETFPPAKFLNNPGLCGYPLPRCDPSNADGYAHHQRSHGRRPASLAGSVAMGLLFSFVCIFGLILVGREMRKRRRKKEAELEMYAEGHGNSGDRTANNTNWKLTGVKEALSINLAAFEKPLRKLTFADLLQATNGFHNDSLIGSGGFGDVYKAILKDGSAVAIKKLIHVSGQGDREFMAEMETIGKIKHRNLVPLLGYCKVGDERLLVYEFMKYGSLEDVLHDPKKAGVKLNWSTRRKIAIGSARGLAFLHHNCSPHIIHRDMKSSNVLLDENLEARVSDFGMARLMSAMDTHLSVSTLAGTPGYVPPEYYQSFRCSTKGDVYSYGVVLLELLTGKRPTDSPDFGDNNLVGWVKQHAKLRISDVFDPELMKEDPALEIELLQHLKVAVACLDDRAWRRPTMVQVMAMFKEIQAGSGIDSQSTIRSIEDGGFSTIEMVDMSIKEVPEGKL
UniProt Q8W4L3: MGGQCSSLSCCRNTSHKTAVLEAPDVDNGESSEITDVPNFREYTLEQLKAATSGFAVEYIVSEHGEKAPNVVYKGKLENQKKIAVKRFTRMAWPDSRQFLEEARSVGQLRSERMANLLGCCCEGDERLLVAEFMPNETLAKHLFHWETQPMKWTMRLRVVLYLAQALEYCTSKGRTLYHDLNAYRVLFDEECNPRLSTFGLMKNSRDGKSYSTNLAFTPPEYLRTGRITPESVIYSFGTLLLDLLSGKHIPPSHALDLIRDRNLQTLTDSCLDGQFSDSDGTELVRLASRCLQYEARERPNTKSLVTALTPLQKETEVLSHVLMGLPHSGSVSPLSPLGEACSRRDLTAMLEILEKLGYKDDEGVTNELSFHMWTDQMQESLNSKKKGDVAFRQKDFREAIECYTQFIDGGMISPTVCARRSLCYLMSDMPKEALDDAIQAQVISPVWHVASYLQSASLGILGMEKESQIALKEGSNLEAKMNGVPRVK

B1: SERK4-KD (kinase domain of SERK4) in pGADT7 (domain or fragment, UniProt Q9SKG5 294-591)
chain: FSNKNVLGRGGFGKVYKGRLADGNLVAVKRLKEERTKGGELQFQTEVEMISMAVHRNLLRLRGFCMTPTERLLVYPYMANGSVASCLRERPEGNPALDWPKRKHIALGSARGLAYLHDHCDQKIIHRDVKAANILLDEEFEAVVGDFGLAKLMNYNDSHVTTAVRGTIGHIAPEYLSTGKSSEKTDVFGYGVMLLELITGQKAFDLARLANDDDIMLLDWVKEVLKEKKLESLVDAELEGKYVETEVEQLIQMALLCTQSSAMERPKMSEVVRMLEGDGLAERWEEWQKEEMPIHDFN
B2: SERK1-KD (kinase domain of SERK1) in pGADT7 (domain or fragment, UniProt Q94AG2 302-589)
chain: FSNKNILGRGGFGKVYKGRLADGTLVAVKRLKEERTPGGELQFQTEVEMISMAVHRNLLRLRGFCMTPTERLLVYPYMANGSVASCLRERPPSQPPLDWPTRKRIALGSARGLSYLHDHCDPKIIHRDVKAANILLDEEFEAVVGDFGLAKLMDYKDTHVTTAVRGTIGHIAPEYLSTGKSSEKTDVFGYGIMLLELITGQRAFDLARLANDDDVMLLDWVKGLLKEKKLEMLVDPDLQTNYEERELEQVIQVALLCTQGSPMERPKMSEVVRMLEGDGLAEKWDEWQ
B3: BKI1 in pGADT7 (protein, UniProt Q9FMZ0 1-337)
chain: METNLQQVKNSSQTFSEKQNPKQEASPSPISSTCSSPSHDFSFTISLQPLSSSSKHISPTLRSPSKTTSSYQQTDPFAVDLSPADEIFFHGHLLPLHLLSHLPVSPRTSTGSYNDGFTLPVKDILPDQPTNNNNNTENAITNISTEAKDDNTEDKAEGEIRVKTKPIKSFSLFGLSKWRKGFESNEREQEQQQQKIKKPMSLDLSHAVKKYIRMLFQKRGNGTQFWNRRQTSSYSFSSSLMGPNGNSKTMINGSYNKRDLIRGRRGELFSAPASMRTSPTNSGHLRVSTAGLSSSSGSTSSSSSDSTMEELQAAIQAAIAHCKNSSAVDRDDKVKDS
B4: …OPEPTIDE-REPEAT THIOREDOXIN-LIKE1 (TTL1) in pGADT7 (protein, UniProt Q9MAH1 1-699)
chain: MPKSVKPISESDKLSDHLRDSSLTSEINKPDFRELDLGSPVSPLRSQPRGLTTTTTTTTTSSSSSSSSGSVTGRIKHAPVIGRSNSVRSQSNSSSGNNNLRPRSDSATTSSSSHSQPLLSSSSSSATSPAPTSPANVLPTGNICPSGKIQITGMTQSRSRSDVLGSGTGTYGHGSIMRGGGISPAKPTNTGGGSNSPVNVGSSSRSSSTVATGETPIWKKAILGSDSEEVKRVGNEMYRKGLFNEALKLYDRAIALSPTNAAYRSNRAAALIGLSRIGEAVKECEDAVRSDPNYGRAHHRLALLLIRLGQVNSARKHLCFLGRPSDPMELQKLEAVEKHLIKCVDARRVTDWKTVLIEADAAIVSGADFSPQLFMCKVEAFLKLHRLDDAQSKLLEVPKVEPFPVSCSQTRFSGMACEAYIYFVKAQIEMALGRFENAVMAAEKASQIDPRCNEVAMLHNTVTLVARARARGNDLYKSERYTEASSAYAEGLRLDPCNAILYCNRAACWFKLGMWERSIEDCNQALRYQPSYTKPLLRRAASNSKMERWGAAVSDYEALIRELPHDKEVAESLFHAQVALKKSRGEEVLNMEFGGEVEEIYSLEQFKSAMNLPGVSVIHFSTASDHQCKQISPFVDSLCTRYPSIHFLKVDIDKCPSIGNAENVRVVPTVKIYKNGSRVKEIVCPSKEVLEYSVRHYSG
B5: SERK2-KD (kinase domain of SERK2) in pGADT7 (domain or fragment, UniProt Q9XIC7 305-592)
chain: FSNKNILGRGGFGKVYKGRLADGTLVAVKRLKEERTPGGELQFQTEVEMISMAVHRNLLRLRGFCMTPTERLLVYPYMANGSVASCLRERPPSQLPLAWSIRQQIALGSARGLSYLHDHCDPKIIHRDVKAANILLDEEFEAVVGDFGLARLMDYKDTHVTTAVRGTIGHIAPEYLSTGKSSEKTDVFGYGIMLLELITGQRAFDLARLANDDDVMLLDWVKGLLKEKKLEMLVDPDLQSNYTEAEVEQLIQVALLCTQSSPMERPKMSEVVRMLEGDGLAEKWDEWQ

Target: T1, BON1-A (C-terminal A domain of BON1, from Val-319 to Pro-578), bait in pGBKT7 (Arabidopsis thaliana)
Test: two-hybrid; pairwise co-transformation of pGBKT7 and pGADT7 constructs into yeast strain Y2H Gold; growth on SC -Leu/-Trp and SC -Ade/-His/-Leu/-Trp with X-a-Gal

binding | Molecule
no binding | BSK1 in pGADT7 (from UniProt Q944A7 1-512)
no binding | BRI1 in pGADT7 (from UniProt O22476 1-1196) (receptor)
no binding | BSK3 in pGADT7 (from UniProt Q8W4L3 1-489)
binds | B1
binds | B2
no binding | B3
no binding | B4
binds | B5

From PMC10923931
